In PubChem BioAssay AID504832 (National Center for Advancing Translational Sciences (NCATS), 2011):
Hit rate of the full screen: of about 310,000 compounds, about 18,000 (5.8%) were called active. Inconclusive means that the source gave no clear call. Such entries were picked first, then a sample of the others. Calls come from the whole dose curve; as a rule, active = well fitted inhibition curve with a large enough effect; inconclusive = small, poorly fitted or top-dose-only effect, or another doubt; inactive = no such curve, though single readings can be large or run the other way. No potency is given beside an inconclusive call; the fits are too rough.

Assay: Primary qHTS for delayed death inhibitors of the malarial parasite plastid, 48 hour incubation
Conditions: P. falciparum luciferase growth in erythrocytes; series mostly up to 28.7 µM
Method in brief: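 Erythrocytes infected with P. falciparum carrying an integrated firefly luciferase reporter (2% hematocrit, 0.1% parasitemia final) were exposed to compounds in RPMI 1640 with 0.5% Albumax at 37 C, 5% CO2. Growth inhibition was scored as reduced luminescence.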
Potency is the fitted concentration of half-maximal effect; tags give direction and shape of the fitted curve.

SMILES | Potency
CC(Nc1nc(-c2ccncc2)nc2ccccc12)c1ccccc1 (centres undefined) | active: 5.22 µM
O=C(NCCc1ccc(F)cc1)C1CCN(C(=O)Nc2ccccc2)CC1 | inconclusive [inhibitor, single point]
COc1ccc(CN(C)c2ccc(S(=O)(=O)N3CCN(C)CC3)cc2[N+](=O)[O-])cc1OC | active: 11.7 µM
O=c1[nH]nc(Cc2ccc(-c3ccccc3Cl)o2)c2ccccc12 | inconclusive [inhibitor, single point]
CCCCNC(=S)NNC(=O)c1ccncc1 | inconclusive [inhibitor, single point]
COc1ccccc1C(=O)c1cc2ccc(O)cc2oc1=O | inactive
Cc1cccc([C@@H]2[C@@H]3C(=O)N(Cc4ccccc4)C(=O)[C@@H]3[C@]3(Cc4ccccc4)C(=O)N(c4cccc(F)c4)C(=O)N23)c1 | inconclusive [inhibitor, partial curve, poor fit]
O=C(CSc1nncc2ccccc12)Nc1ccc(C(=O)O)cc1 | inactive
COC(=O)CSc1nnc2n(C3CCCCC3)c(=O)c3c4c(sc3n12)CCCC4 | inconclusive [inhibitor, full curve]
Cc1cc(Cl)ccc1C(=O)C1CCCN(C(=O)c2nonc2C)C1 (centres undefined) | inactive
CCC(C)(C)NC(=O)C(c1ccc(OC)cc1)N(Cc1ccco1)C(=O)CCC(=O)Nc1cc(C)on1 (centres undefined) | inconclusive [inhibitor, single point]
CC(C)CC[n+]1ccccc1/C=C/c1ccc(N(C)C)cc1 | active: 0.928 µM
CCn1cc(/C=C(\NC(=O)c2ccccc2OC)C(=O)NCCCn2ccnc2)c2ccccc21 | inconclusive [inhibitor, full curve, poor fit]
CCOc1ccc(NCc2cccn2-c2nnc(N3CCC(C(=O)NCCCN4CCCCC4C)CC3)s2)cc1 (centres undefined) | inconclusive [inhibitor, single point]
Cc1cc(C)c2[nH]c(=O)c(CN(Cc3ccccc3)C(=S)NCCCN(C)C)cc2c1 | active: 13.1 µM
COC(=O)c1c(NC(=O)c2cccs2)sc2c1CCCC2 | inconclusive [inhibitor, partial curve, poor fit]
CN1CCN(C2=Cc3cc(Cl)ccc3Sc3cc(F)ccc32)CC1 | active: 4.65 µM
COc1ccc(N2CCN(C(CNC(=O)c3cccc(Cl)c3)c3cccnc3)CC2)cc1 (centres undefined) | inconclusive [inhibitor, single point]
CCOC(=O)C1(Cc2ccccc2C)CCCN(S(=O)(=O)c2cccnc2)C1 (centres undefined) | active: 9.28 µM
O=C(Nc1ccc2oc(-c3ccccc3F)nc2c1)c1ccc([N+](=O)[O-])o1 | inconclusive [inhibitor, full curve]
CSc1ncccc1C(=O)Nc1ccc2nc(C)sc2c1 | inactive
N#CCC(=O)Nc1ccc(C(=O)OCC(=O)Nc2ccc3ccccc3c2)cc1 | active: 13.1 µM

SMILES | Potency
CCCCn1c(=O)n(CC(=O)Nc2ccc(OC)c(Cl)c2)c(=O)c2c1nc(CO)n2CCC | active: 10.4 µM
COc1ccc(F)cc1S(=O)(=O)NCCCn1ccnc1 | inactive
COc1cc(/C=C2\C(=N)N3N=C(S(C)(=O)=O)SC3=NC2=O)ccc1OCCOc1ccccc1C | active: 10.4 µM
Cc1nc(N2CCN(C(=O)c3cccs3)CC2)c2c3c(sc2n1)CCCC3 | inconclusive [inhibitor, single point]
CC1(C)CC(=O)C2=C(C1)OC(N)=C(C#N)C2C#Cc1ccccc1 (centres undefined) | inconclusive [inhibitor, full curve, poor fit]
CCN1CCN(C(=S)Nc2sc(C)c(-c3ccccc3)c2C(=O)OC)CC1 | inconclusive [inhibitor, single point]
O=C(CCNS(=O)(=O)c1ccccc1)OCc1nc2ccsc2c(=O)[nH]1 | inconclusive [inhibitor, single point]
Cc1ccc(S(=O)(=O)N(CC(=O)N2CCCCC2)c2cccc(C)c2)cc1 | inconclusive [inhibitor, partial curve]
COc1ccccc1CNc1cc(-c2ccccc2)ccc1OC | inconclusive [inhibitor, partial curve, poor fit]
CCc1ccc(C(=O)NN=C2CCCCCC2)s1 | inactive
Cc1cc(OC(C)C(=O)N(Cc2cccs2)C2CCS(=O)(=O)C2)ccc1Cl (centres undefined) | inconclusive [inhibitor, single point]
Cn1c(=O)cc(OCCCC(=O)N2CCN(c3ccccn3)CC2)c2ccccc21 | inconclusive [inhibitor, single point]
CCC(c1nnnn1C1CCCCC1)N(Cc1ccco1)Cc1cc2ccc(OC)cc2[nH]c1=O (centres undefined) | active: 7.38 µM
NC(=O)c1nsc(C(=O)N(Cc2cccnc2)C(C(=O)NCc2ccc(F)cc2)c2ccc(F)cc2)c1N (centres undefined) | inconclusive [inhibitor, partial curve]
CC(=O)n1cc([C@@H]2C=C(C(=O)N3CCOCC3)O[C@H](OCCCCO)C2)c2ccccc21 | inconclusive [inhibitor, single point]
COc1ccc(CCNC(=O)c2cccc(NS(=O)(=O)c3ccccc3F)c2)cc1OC | inconclusive [inhibitor, single point]
O=C(O)C1CC=CCC1C(=O)NNS(=O)(=O)c1ccccc1 (centres undefined) | inactive
CC(C)NS(=O)(=O)c1ccc(NC(=O)C(C)OC(=O)C2CCC2)cc1 (centres undefined) | inactive
CCc1nnc(SCC(=O)Nc2nnc(C)s2)n1CC1CCCO1 (centres undefined) | inconclusive [inhibitor, full curve, poor fit]
COCCNc1nnc(SCC(=O)c2c[nH]c3ccccc23)s1 | active: 8.28 µM
O=c1cc(N2CCCCC2)c(-c2ccccc2)nn1Cc1cccc(Cl)c1 | inconclusive [inhibitor, single point]
Cc1ccc(C)c(NC(=S)/C(=C(\[O-])c2ccc(Cl)s2)[n+]2ccccc2)c1 | inconclusive [inhibitor, single point]
